About 800 (1.6%) of roughly 50,000 compounds showed an effect of 50% or more. This is one part of the list.

The target in the assay is Bcl-2-like protein 10 (Homo sapiens) (UniProt Q9HD36). In words: Phenotype converters, Bcl-B/TR3 peptide binding displacement, primary biochemical FP (AID 1240).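 Note: 0% = Bcl-B with tracer peptide and DMSO and 100% = tracer peptide lacking Bcl-B.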 The following applies: GST-Bcl-B / FITC-TR3 peptide fluorescence polarization; stronger effect = higher value; compound at 3.75 mg/L.
Sequence of UniProt Q9HD36 (Q9HD36 whole entry, looked up): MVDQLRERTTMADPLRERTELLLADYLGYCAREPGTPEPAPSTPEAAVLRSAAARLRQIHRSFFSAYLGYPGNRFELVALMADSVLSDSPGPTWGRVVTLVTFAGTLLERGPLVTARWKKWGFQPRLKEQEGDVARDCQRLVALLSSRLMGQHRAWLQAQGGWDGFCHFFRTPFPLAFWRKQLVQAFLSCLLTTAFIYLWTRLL
Turning to `Cc1cccc(C(=O)NNC(=O)c2ccco2)c1O`, the displacement was -6.6%.

With `COc1ccc(OC)c(N=CC2=C(O)CC(C)(C)CC2=O)c1`, the displacement was 1.8%.

Turning to `Cc1ccc2oc(-c3ccc(NC(=O)c4ccc(Br)o4)c(C)c3)nc2c1`, the displacement is -5.7%.

As to `CS(=O)(=O)N(CC(=O)N1CCOCC1)c1cc(Cl)cc(Cl)c1`, the displacement came out at 6.9%.

For the molecule `Cc1ccccc1NC(=O)C1CC(=O)N(c2ccc(Cl)cc2)C1` (stereo not given), the displacement stood at 3.3%.

As to `c1ccc2sc(SCCCN3CCCCC3)nc2c1`, the displacement is 2.7%.

Take `CC(=O)Nc1ccc(S(=O)(=O)NCCSc2ccc(C)cc2)cc1`: the displacement is -0.6%.

Consider `O=C(O)CCC(=O)N1N=C(c2c(-c3ccccc3)c3cc(Cl)ccc3[nH]c2=O)CC1c1ccc([N+](=O)[O-])cc1` (stereo not given), for which the displacement was determined as 10.3%.

Consider `COc1ccccc1N1CCN(C2CC(=O)N(c3cc(Cl)cc(Cl)c3)C2=O)CC1` (stereo not given), for which the displacement amounted to 12%.

For `CCN(CC)C(=O)c1ccccc1Br`, the displacement was determined as 47.2%.

On to `O=C(NNC(=O)c1cc([N+](=O)[O-])ccc1Cl)c1ccc([N+](=O)[O-])cc1`, for which the displacement was -4.8%.

Consider `Cc1ccc2nsnc2c1NC(=O)c1ccc(-c2cc(Cl)ccc2Cl)o1`, for which the displacement is -1.5%.

Turning to `O=C(Nc1ccc(Cl)cc1)c1ccc(-c2cccc(Cl)c2)o1`, the displacement was -3.3%.

Take `COCCCNC(=O)CN(c1cccc(C(F)(F)F)c1)S(C)(=O)=O`: the displacement came out at 0.1%.

`CCCC(=O)Nc1ccc2nn(-c3ccc(C)c(Cl)c3)nc2c1`: the displacement was determined as 3.6%.

For the molecule `CNC(=O)COc1ccc(C23CC4CC(CC(C4)C2)C3)cc1`, the displacement turned out to be 1.4%.

Take `CC(=O)N1C(Nc2ccccc2)CC(C)N1c1ccccc1` (stereo not given): the displacement was 4.3%.

On to `CCOC(=O)C1=C(O)/C(=C/c2ccc(OC)c(OC)c2)SC1=Nc1ccc(Cl)cc1`, for which the displacement is -9.2%.

With `CC(NC(=O)c1cccc(F)c1)C1CC1` (stereo not given), the displacement was -2.7%.

In the case of `Cc1ccc(C(=O)NC2CC(C)(C)NC(C)(C)C2)cc1`, the displacement was -12.3%.

Take `CCC(=O)N1CCN(c2cc(N3CCOCC3)c(F)cc2[N+](=O)[O-])CC1`: the displacement is -4.2%.

Regarding `CN(C)c1ccc(-c2ncnn2-c2sc3c(c2C#N)CCCC3)cc1`, the displacement worked out at 3.1%.

In the case of `COC(=O)c1sc(NC(=O)CCCOc2ccc(Cl)cc2Cl)c(C(=O)OC)c1C`, the displacement was -6.1%.

With `CCOC(=O)C1=C(C)N=c2s/c(=C\c3ccccc3O)c(=O)n2C1c1cccc(OC)c1` (stereo not given), the displacement was -0.9%.

Consider `COc1ccc(C)cc1NC(=O)c1cc(OC)c(OC)c(OC)c1`, for which the displacement is -7.2%.

As to `COc1ccc(OC)c(NC(=S)NC(NC(=O)c2cc(OC)c(OC)c(OC)c2)C(Cl)(Cl)Cl)c1` (stereo not given), the displacement amounted to 8%.

As for `Cc1n[nH]c(C)c1Sc1ccccc1N=Cc1ccccc1O`, the displacement turned out to be 0.7%.

`COc1ccccc1N1CCN(/N=C\C=C\c2ccccc2)CC1`: the displacement is -8.1%.

For `COc1ccc(CNc2cccc(SC)c2)c(OC)c1`, the displacement was determined as 16.4%.

`O=S(=O)(NCCCNS(=O)(=O)c1ccc(Cl)cc1)c1ccc(Cl)cc1`: the displacement was -1.5%.

Take `CC(=O)c1ccc(NC(=O)c2c(Cl)cccc2Cl)cc1`: the displacement was 10.6%.

With `O=S(=O)(c1ccc(Cl)c(Cl)c1)N1CCN(c2ccccc2)CC1`, the displacement was -4.7%.

On to `CCOc1ccccc1N(CC(=O)Nc1ccc(C)cc1C)S(=O)(=O)c1ccccc1`, for which the displacement was -1%.

`CCOC(=O)C1=C(C)N(C)C(=O)NC1c1ccc2c(c1)OCO2` (stereo not given): the displacement is -3.5%.

Take `Cc1c(NC(=O)c2ccc(OCC(C)C)cc2)cccc1-c1nc2ncccc2o1`: the displacement is 1.5%.

`CCOC(=O)C1=C(C)NC(=S)NC1c1ccc(OC(=O)c2ccco2)cc1` (stereo not given): the displacement stood at 11.7%.

As to `CC(C)(C)c1ccc(/C=C/C(=O)NCc2ccccc2)cc1`, the displacement was -8.7%.

`Cc1ccnc(NC(=O)c2ccc(C)o2)c1`: the displacement was -3.2%.

On to `CCN(CC)c1ccc(/C=N\NC(=O)c2cccc3cc[nH]c23)cc1`, for which the displacement was -2.5%.

In the case of `O=C(COc1cccc(Cl)c1)NCCc1nc2ccccc2[nH]1`, the displacement is -6%.

For `O=C(CCC(=O)Nc1ccccc1)NCCO`, the displacement was -0.1%.

As for `O=C(ON=C1c2ccccc2-c2ccccc21)c1ccccc1F`, the displacement came out at 5.3%.

As for `CC1=C(C(=O)Nc2ccc(Cl)cc2)C(c2ccc(F)cc2)NC(=S)N1` (stereo not given), the displacement is -8.6%.

On to `COc1ccc(S(=O)(=O)n2nnc3ccccc32)cc1OC`, for which the displacement stood at 2.8%.

As to `Cc1ccc(C(C)(C)C)c(OCC(=O)Nc2ccccc2C(F)(F)F)c1`, the displacement is -0.6%.

With `Cc1cc(C)n(-c2nc3nonc3nc2Nc2cccc(C)c2C)n1`, the displacement was -42.2%.

`Cc1c(C(=O)OC(C)C)sc(NC(=O)COc2ccc(Cl)cc2)c1C(N)=O`: the displacement came out at 30.4%.

Consider `COc1ccc(CC(=O)O/N=C(\N)c2ccccn2)cc1OC`, for which the displacement turned out to be 11%.

On to `O=C(COc1ccc([N+](=O)[O-])cc1)Nc1cccc2ccccc12`, for which the displacement worked out at 10.1%.

On to `O=C(Nc1ccc([N+](=O)[O-])cn1)C1CC1c1ccccc1` (stereo not given), for which the displacement was -1.9%.

In the case of `Cc1ccc(NC(=O)c2ccc3c(c2)OCCO3)c([N+](=O)[O-])c1`, the displacement amounted to 8.1%.

Turning to `COc1ccc(N2C(=O)c3ccccc3NC2c2ccc(OC)c(Cn3nc(C)c([N+](=O)[O-])c3C)c2)cc1` (stereo not given), the displacement was 6.3%.

As to `CCc1cc2c(cc1C(C)O)OCCO2` (stereo not given), the displacement is -13.4%.

As to `C(=N\n1cnnc1)/c1ccc(Sc2nnnn2-c2ccccc2)o1`, the displacement was -10.9%.

As to `COc1ccc(C2CC(=O)C3=C(C2)Nc2ccccc2NC3c2ccc3ccccc3c2)cc1` (stereo not given), the displacement was -2.3%.

For `CCOn1c(=O)c(-c2ccccc2)[n+]([O-])c2ccccc21`, the displacement worked out at 18.9%.

For the molecule `Cc1ccc(S(=O)(=O)Nc2c(C)cc(O)c(Br)c2C)cc1`, the displacement came to 3.9%.

In the case of `CS(=O)(=O)N(CC(=O)Nc1cccc(C(F)(F)F)c1)c1ccc(Cl)cc1`, the displacement amounted to 2.3%.

For the molecule `CCCOc1cccc(C(=O)Nc2ccc(C)cc2[N+](=O)[O-])c1`, the displacement was found to be 9.5%.

For `O=C(NCCO)C(=O)Nc1cccc(C(F)(F)F)c1`, the displacement was found to be 12.4%.

For the molecule `O=C(N/N=C/c1ccc(Cl)cc1Cl)c1c[nH]c2ccccc12`, the displacement is 15.1%.

Consider `O=C(Nc1cccc(-c2nc3ccccc3[nH]2)c1)c1ccc2c(c1)OCCO2`, for which the displacement is 11.6%.

As for `COc1ccc(N2C(=O)/C(=C/c3cn(Cc4ccccc4)c4ccccc34)C(=O)NC2=S)cc1`, the displacement turned out to be 25%.

On to `COc1ccc(-c2nnnn2C)cc1S(=O)(=O)NCCc1ccccc1`, for which the displacement was 17.1%.

As for `FC(F)(F)c1ccc(-c2nnc3ccc4ccccc4n23)cc1`, the displacement was -8%.

As for `CC1=C(C#N)C(c2ccccc2Br)C2=C(CC(c3ccccc3)CC2=O)N1` (stereo not given), the displacement was found to be 1.5%.

Turning to `Cc1csc(NC(=O)c2ccc(Cl)cc2[N+](=O)[O-])n1`, the displacement came out at 11.8%.

Turning to `CC(=O)Nc1c(-c2ccc(C)cc2)nc2ccc(Cl)cn12`, the displacement amounted to 6.3%.

Consider `N/C(=N\OC(=O)c1ccc(F)cc1)c1cccnc1`, for which the displacement came out at 4.4%.

`Cc1cccc(N=Cc2c(O)n(-c3ccccc3F)c(=O)[nH]c2=O)c1`: the displacement is -2.6%.

(Values after PubChem BioAssay AID1240 (Sanford-Burnham Center for Chemical Genomics, 2008).)
